From article PMC4336329 (PLoS ONE, 2015)
Out of some 310,000 compounds screened, about 14,000 (4.5%) showed an effect of 50% or more. The effect is printed as a negative number. The list shows a part of the results.

What follows are compounds tested against human ether-à-go-go-related gene (hERG) potassium channel (human, UniProt Q12809) (assay: primary screen, population patch clamp on CHO cells stably expressing hERG).
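Also: peak tail current of the secondary pulse compared with the same well before compound.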

Sequence of human ether-à-go-go-related gene (hERG) potassium channel (Q12809 whole entry, looked up): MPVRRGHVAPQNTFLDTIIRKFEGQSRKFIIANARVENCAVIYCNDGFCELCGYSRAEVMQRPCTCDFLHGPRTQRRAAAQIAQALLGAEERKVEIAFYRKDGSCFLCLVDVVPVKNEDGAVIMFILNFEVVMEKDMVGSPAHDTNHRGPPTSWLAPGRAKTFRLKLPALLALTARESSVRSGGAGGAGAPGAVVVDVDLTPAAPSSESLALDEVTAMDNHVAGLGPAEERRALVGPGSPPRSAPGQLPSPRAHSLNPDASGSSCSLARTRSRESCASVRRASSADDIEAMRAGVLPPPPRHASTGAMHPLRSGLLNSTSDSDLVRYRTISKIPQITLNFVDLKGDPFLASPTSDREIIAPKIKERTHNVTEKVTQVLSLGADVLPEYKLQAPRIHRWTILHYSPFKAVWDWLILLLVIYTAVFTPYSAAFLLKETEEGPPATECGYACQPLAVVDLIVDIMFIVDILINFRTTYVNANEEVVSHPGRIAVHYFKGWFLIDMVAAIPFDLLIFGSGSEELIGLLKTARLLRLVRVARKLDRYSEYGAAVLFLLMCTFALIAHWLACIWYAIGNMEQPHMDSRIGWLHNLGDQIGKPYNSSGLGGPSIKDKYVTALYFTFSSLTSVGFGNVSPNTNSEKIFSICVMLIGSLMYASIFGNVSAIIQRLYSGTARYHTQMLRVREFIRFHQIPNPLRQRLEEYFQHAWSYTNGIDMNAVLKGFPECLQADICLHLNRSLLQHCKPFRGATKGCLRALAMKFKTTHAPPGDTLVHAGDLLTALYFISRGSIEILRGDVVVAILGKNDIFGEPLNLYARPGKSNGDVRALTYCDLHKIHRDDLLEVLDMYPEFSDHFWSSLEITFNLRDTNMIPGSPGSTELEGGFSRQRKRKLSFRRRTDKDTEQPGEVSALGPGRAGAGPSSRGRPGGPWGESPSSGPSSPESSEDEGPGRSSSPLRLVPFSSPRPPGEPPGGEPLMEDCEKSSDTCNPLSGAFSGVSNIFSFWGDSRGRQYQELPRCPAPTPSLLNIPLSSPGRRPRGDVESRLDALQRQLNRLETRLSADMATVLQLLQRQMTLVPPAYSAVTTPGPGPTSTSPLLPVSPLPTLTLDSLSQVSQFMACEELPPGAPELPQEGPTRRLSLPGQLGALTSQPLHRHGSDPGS

Structure (SMILES)	hERG current change (%, negative = inhibition) at 10uM [%]
CCCn1nc(C(=O)Nc2ccc(S(=O)(=O)Nc3nccs3)cc2)c2ccccc2c1=O	9.6
O=C(Nc1nccs1)NC1CCCCC1	-19.4
Fc1ccccc1NC(=S)N1CCCCC1	-1.26
Cc1cc(C)nc(NC(=O)NS(=O)(=O)Nc2ccc(Br)cn2)n1	17.9
Cc1ccc2nc(N3CCN(C(=O)c4ccc(F)cc4)CC3)c(C#N)cc2c1	-73.6
COc1ccccc1/C=C(/C(=O)OCC(=O)Nc1cc(C)ccc1C)c1ccccc1	21.1
COc1ccc(-n2nc(C(=O)NCC(=O)NCCc3ccc(OC)c(OC)c3)c3ccccc3c2=O)cc1Cl	2.97
Cn1c(=O)c2c(nc(N3CCNCC3)n2Cc2ccccc2Cl)n(C)c1=O	12.3
CCOC(=O)CSc1n[nH]c(-c2ccco2)n1	12.5
COc1ccc(NC(=O)CCn2c(=O)c3cccn3c3ccccc32)cc1	-1.02
COCCNC(=O)C(=O)NCC1OCCCN1S(=O)(=O)c1cccs1 (stereo not shown)	-0.83
Cc1cccn2c(CN(C)C3CCOC3)c(C(=O)N3CCCCC3)nc12 (stereo not shown)	32.3
Cc1ccccc1CNC(=O)C(=O)NCCC1CCCCN1S(=O)(=O)c1cccs1 (stereo not shown)	-12.8
Cc1nn(Cc2ccccc2)c(C)c1NC(=O)c1cc(-c2cccs2)on1	0.998
C/C(=N\OCC(=O)Nn1c(C)nc2ccccc2c1=O)c1ccccc1	-13.8
Cc1ccc(/C=N/N2CCN(Cc3ccccc3)CC2)s1	-15.7
NNc1ccc(Cc2ccc(Cl)cc2Cl)nn1	6.66
CN=C(Nc1ccccc1OC)SC1CC(=O)N(c2ccc(C(=O)OC)cc2)C1=O (stereo not shown)	-12.5
COc1cccc(C(=O)Nc2ccc(NC(C)=O)cn2)c1	6.26
COc1ccc(C(C)=O)c(Oc2cc(NN3CCCCC3)c([N+](=O)[O-])cc2[N+](=O)[O-])c1	10.1
CCCCc1ccc(NC(=S)N2CCCC2)cc1	10.7
O=C(NCc1ccco1)/C(=C/c1cccc([N+](=O)[O-])c1)NC(=O)c1ccco1	-56.8

Structure (SMILES)	hERG current change (%, negative = inhibition) at 10uM [%]
O=C(CN1CCCCCC1)N/N=C/c1ccc2ccccc2c1	-64.6
CCOc1cc(CNc2ccccc2)cc(Br)c1OCC(=O)NC(C)(C)C	2.76
O=C(Nc1ccc(N2CCOCC2)cc1)c1ccccc1SCC(=O)N1CCCC1	-0.824
CCCN(CCC)C(=O)Cn1c(=O)n(CCC(=O)NCCc2ccccc2)c(=O)c2ccccc21	-25
Cc1cc(C)n(-c2n[nH]c(C)c2[N+](=O)[O-])n1	3.22
Cc1ccc(OCC(=O)NCCc2c[nH]c3ccccc23)cc1	17.1
COc1ccc(S(=O)(=O)N2CCCOC2CNC(=O)C(=O)NCc2ccco2)cc1C (stereo not shown)	-11.4
COc1ccccc1NC(=O)c1ccccc1S(=O)(=O)c1ccccc1[N+](=O)[O-]	8.91
COc1ccc(NC(C)=O)cc1NC(C)C(=O)Nc1ccc(F)c(F)c1F (stereo not shown)	1.83
O=C(NCC1COc2ccccc2O1)c1ccc(NC(=O)c2ccco2)cc1 (stereo not shown)	-11.2
O=S(=O)(c1ccccc1)N1CCN(C2CCCCCCC2)CC1	-8.74
COc1ccc(OC)c(NC(=O)CSc2nnnn2-c2ccc3c(c2)OCO3)c1	-7.22
O=C(/C=C/c1cccc([N+](=O)[O-])c1)Nc1cccc(NC(=O)c2ccco2)c1	-18.3
Cn1c(-[n+]2c(-c3ccccc3)cc(-c3ccccc3)cc2-c2ccccc2)nc2c([N+](=O)[O-])cccc21.[I-]	-31
Cc1ccc(-c2nn(-c3ccccc3)cc2C(=O)N2CCOCC2)cc1	4.15
Cc1cc(C)c(NC(=S)NC(=O)c2ccc(-c3ccccc3)cc2)c(C)c1	9.6
COc1cc(C(=O)n2nc(C)cc2C)cc(OC)c1OC	16.2
COc1ccc(-n2nnnc2SCC(=O)NC2CCCC2)cc1OC	13.8
CCN(CCCNC(=O)CC(C(=O)N1CCc2ccccc21)n1ccnc1)c1cccc(C)c1 (stereo not shown)	-65
CCN(c1ccccc1)S(=O)(=O)c1ccc(OC)c(NS(=O)(=O)c2cccs2)c1	-11.2
CC(C)(C)CC(C)(C)NC(=O)CSCC(=O)Nc1ccc2ccccc2c1	-6.75
